{
  "source": "paper PMC13083723",
  "about": "(Patterns, 2026)",
  "note": "Among all 5,400 compounds or so, about 190 (3.5%) showed an effect of 50% or more. The list shows a part of the results.",
  "data": [
    {"system": "Vero-E6", "test": "primary screen, phospholipidosis by LipidTOX staining; higher = more effect of the substance", "details": "10 µM", "summary_of_the_method": "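Drug-induced phospholipidosis detected with HCS LipidTOX Red reagent in Vero-E6 cells. Compounds tested at 10 μM, with amiodarone (10 μM) as positive control and DMSO (0.1 v/v %) as vehicle.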", "units": {"result_ITMP": "%"}, "values": [
      {"smiles": "COc1cccc(-c2ccc([C@@H](Oc3cc(-c4ccc(C[C@H](N)C(=O)O)cc4)nc(N)n3)C(F)(F)F)cc2)c1", "result_ITMP": -3.18},
      {"smiles": "c1ccc(CCCCN2CCC(c3ccccc3)CC2)cc1", "result_ITMP": 0.01},
      {"smiles": "COC(=O)c1c(C)[nH]c(C)c1C(=O)c1ccccc1Cc1ccccc1", "result_ITMP": 0.65},
      {"smiles": "CC(C)n1nnc2cc(C(=O)O)ccc21", "result_ITMP": -1.84},
      {"smiles": "O=C(O)Cn1c2c(c3cc(F)ccc31)CN(C(=O)c1cccc3ccccc13)CC2", "result_ITMP": -2.57},
      {"smiles": "CC(C)(CCCCCC(O)CCCCCC(C)(C)C(=O)O)C(=O)O", "result_ITMP": -2.73},
      {"smiles": "C=C(C)[C@H]1CN[C@H](C(=O)O)[C@H]1CC(=O)O", "result_ITMP": -8},
      {"smiles": "O=C(O)C[CH2][Ge](=[O])[O][Ge](=[O])[CH2]CC(=O)O", "result_ITMP": -3.6},
      {"smiles": "COc1ccc(S(=O)(=O)Nc2c(C)cc(C)cc2C)cc1", "result_ITMP": -4.15},
      {"smiles": "Oc1ccc(-c2c(-c3ccccc3)nn3c(C(F)(F)F)cc(C(F)(F)F)nc23)cc1", "result_ITMP": -1.36},
      {"smiles": "CC(C)NCC(O)c1ccc(O)c(O)c1", "note": "(stereo not drawn)", "result_ITMP": -2.95},
      {"smiles": "CS(=O)(=O)N1CCN(Cc2cc3nc(-c4cccc5[nH]ncc45)nc(N4CCOCC4)c3s2)CC1", "result_ITMP": 9.24},
      {"smiles": "CC(C)(C)NC(=O)[C@@H]1C[C@@H]2CCCC[C@@H]2CN1C[C@@H](O)[C@H](Cc1ccccc1)NC(=O)[C@H](CC(N)=O)NC(=O)c1ccc2ccccc2n1", "result_ITMP": -3.77},
      {"smiles": "CC1C[C@H]2[C@@H]3CCC4=CC(=O)C=C[C@]4(C)[C@@]3(Cl)[C@@H](O)C[C@]2(C)[C@@]1(O)C(=O)CO", "note": "(stereo partly drawn)", "result_ITMP": -1.12},
      {"smiles": "c1ccc(C(O[C@@H]2CCCN(CCc3ccc4c(c3)OCO4)C2)c2ccccc2)cc1", "result_ITMP": 3.22},
      {"smiles": "O=C(Oc1ccccc1)c1ccccc1O", "result_ITMP": -5.49},
      {"smiles": "Nc1nc2cc(-c3ccc4ncc(C(=O)N5CCOCC5)n4c3)ccc2o1", "result_ITMP": -0.2},
      {"smiles": "COc1ncnc(NS(=O)(=O)c2ccc(N)cc2)c1OC", "result_ITMP": -4.3},
      {"smiles": "C[C@]12CCC(=O)C=C1CC[C@@H]1[C@@H]2C(=O)C[C@]2(C)C(=O)CC[C@@H]12", "result_ITMP": -0.84},
      {"smiles": "CC(=O)O.CC(=O)O.N.NC1CCCCC1.[Cl][Pt][Cl]", "result_ITMP": -1.8},
      {"smiles": "CCCCOC(=O)c1ccccc1Nc1cccc(C(F)(F)F)c1", "result_ITMP": -2.32},
      {"smiles": "Cc1ccccc1C(=O)c1ccc(Nc2ccc(Br)cc2N)cc1Cl", "result_ITMP": -0.52},
      {"smiles": "CCn1c(-c2ccc(Cl)cc2)n[nH]c1=O", "result_ITMP": -4.76},
      {"smiles": "Cc1cc(C(=O)Nc2nc3cccc(Cl)c3n2[C@@H]2CCCCN(C(=O)/C=C/CN(C)C)C2)ccn1", "result_ITMP": 37.9},
      {"smiles": "C[C@]12CC[C@H](O)CC1=CC[C@@H]1[C@@H]2CC[C@]2(C)C(c3cccnc3)=CC[C@@H]12", "result_ITMP": -5.26},
      {"smiles": "CCOC(=O)C1=C(C)NC(C)=C(C(=O)OCC)C1c1ccccc1/C=C/C(=O)OC(C)(C)C", "result_ITMP": 2.86},
      {"smiles": "CCc1ccc(Cc2ccc3c(c2)[C@]2(OC3)O[C@H](CO)[C@@H](O)[C@H](O)[C@H]2O)cc1", "result_ITMP": -1.43},
      {"smiles": "Cn1c(=O)n(-c2ccc(C(C)(C)C#N)cc2)c2c3cc(-c4cnc5ccccc5c4)ccc3ncc21", "result_ITMP": 1.31},
      {"smiles": "CCOc1cc(CC(=O)N[C@@H](CC(C)C)c2ccccc2N2CCCCC2)ccc1C(=O)O", "result_ITMP": -8.44},
      {"smiles": "Cc1cc(C)c2nc(-c3ccccn3)cc(C(=O)Nc3ccc(S(=O)(=O)Nc4onc(C)c4C)cc3)c2c1", "result_ITMP": -2.6},
      {"smiles": "O=C(O)c1ccc(OCCn2ccnc2)cc1", "result_ITMP": -2.18},
      {"smiles": "CCCCN(CCCC)CCC(O)c1cc2c(Cl)cc(Cl)cc2c2cc(C(F)(F)F)ccc12", "note": "(stereo not drawn)", "result_ITMP": 68.8},
      {"smiles": "CN[C@@H]1[C@@H](O)[C@@H](O[C@@H]2[C@@H](O)[C@H](O[C@H]3O[C@H](CN)[C@@H](O)[C@H](O)[C@H]3O)[C@@H](N)C[C@H]2NC(=O)[C@@H](O)CN)OC[C@]1(C)O", "result_ITMP": -2.63},
      {"smiles": "COc1cc(F)c(F)c(Nc2ccc(I)cc2F)c1NS(=O)(=O)C1(C[C@H](O)CO)CC1", "result_ITMP": 5.24},
      {"smiles": "COc1cccc([C@H](O)C2CCN(CCc3ccc(F)cc3)CC2)c1OC", "result_ITMP": 1.34},
      {"smiles": "O=C(O)C(Cc1ccccc1)CN(O)C(=O)Cc1ccccc1", "note": "(stereo not drawn)", "result_ITMP": 3.29},
      {"smiles": "C[C@H](NC[C@H](O)CP(=O)(O)CC1CCCCC1)c1ccc(Cl)c(Cl)c1", "result_ITMP": -3.93},
      {"smiles": "COc1cc(S(C)(=O)=O)ccc1Nc1nc2ccc(-c3ccc(NC(=O)[C@H](C)c4ccc(F)cc4)cc3)cn2n1", "result_ITMP": 0.09},
      {"smiles": "O=S(=O)(c1ccccc1)N(CC(F)(F)F)c1ccc(C(O)(C(F)(F)F)C(F)(F)F)cc1", "result_ITMP": -1.73},
      {"smiles": "C[C@]12CC[C@H](O)CC1=CCC1C2CC[C@]2(C)C(n3cnc4ccccc43)=CCC12", "note": "(stereo partly drawn)", "result_ITMP": -2.43},
      {"smiles": "Nc1c2c(nc3ccccc13)CCCC2", "result_ITMP": 5.94},
      {"smiles": "O=c1sn(-c2cccc3ccccc23)c(=O)n1Cc1ccccc1", "result_ITMP": -0.73},
      {"smiles": "Oc1cc(O)cc(O)c1", "result_ITMP": -3.47},
      {"smiles": "O=c1cc(-c2ccccc2)oc2cc(O)cc(O)c12", "result_ITMP": -1.68},
      {"smiles": "CO[C@@H]1[C@H](OC(=O)NC(=O)CCl)CC[C@]2(CO2)[C@H]1[C@@]1(C)O[C@@H]1CC=C(C)C", "result_ITMP": 16.1},
      {"smiles": "COc1ccc2c(c1)c(C1=C(c3c[nH]c4ccccc34)C(=O)NC1=O)cn2CCCN(C)C", "result_ITMP": 120},
      {"smiles": "Cc1cc(OCCCS(C)(=O)=O)cc(C)c1-c1cccc(COc2ccc3c(c2)OC[C@H]3CC(=O)O)c1", "result_ITMP": -1.57},
      {"smiles": "O=C1C(=Cc2cccnc2)C(=O)c2ccccc21", "result_ITMP": -2.75},
      {"smiles": "CCN(CC)C(=S)SSC(=S)N(CC)CC", "result_ITMP": -1.1},
      {"smiles": "C[C@H](CCC(=O)[O-])[C@H]1CCC2C3C(=O)CC4CC(=O)CC[C@]4(C)C3CC(=O)[C@@]21C", "note": "(stereo partly drawn)", "result_ITMP": 4.65},
      {"smiles": "O=C(CCCCCN1C(=O)c2cccc3cccc(c23)C1=O)NO", "result_ITMP": -2.63},
      {"smiles": "Cc1cccc(-c2n[nH]cc2-c2ccc(F)c(-c3cnn(CCO)c3)c2)n1", "result_ITMP": -7.98},
      {"smiles": "COc1ccc(CN2CCNCC2)c(OC)c1OC", "result_ITMP": -3.48},
      {"smiles": "CC(C)(C)C(=O)OCC(=O)[C@H]1CC[C@H]2[C@@H]3CCC4=CC(=O)CC[C@]4(C)[C@H]3CC[C@]12C", "result_ITMP": -0.94},
      {"smiles": "CC(C)=CCC/C(C)=C/CC/C(C)=C/CCC(O)OC/C=C(\\C)CCC=C(C)C", "note": "(stereo not drawn)", "result_ITMP": -2.12},
      {"smiles": "C/C(=C(\\CCOP(=O)(O)O)SC(=O)c1ccccc1)N(C=O)Cc1cnc(C)nc1N", "result_ITMP": -10.3},
      {"smiles": "Cn1cc(C[C@@H](N)C(=O)O)c2ccccc21", "result_ITMP": 5.95},
      {"smiles": "C[C@H](N)C(=O)N[C@@]1(C(=O)O)C[C@@H](Sc2nnc[nH]2)[C@H]2[C@H](C(=O)O)[C@H]21", "result_ITMP": -1.74},
      {"smiles": "O=C1CC(=O)c2c(Cl)c(Cl)c(Cl)c(Cl)c21", "result_ITMP": -8.99},
      {"smiles": "CC1(C)O[C@@H]2C[C@H]3[C@@H]4CCC5=CC(=O)C=C[C@]5(C)[C@H]4[C@@H](O)C[C@]3(C)[C@]2(C(=O)CO)O1", "result_ITMP": 5.48},
      {"smiles": "O=C(O)c1ccc2c(c1)nc(Nc1cccc(Cl)c1)c1ccncc12", "result_ITMP": -4.43},
      {"smiles": "C/C=C/C[C@@H](C)C(=O)[C@H]1C(=O)N[C@@H](C(C)C)C(=O)N(C)CC(=O)N(C)[C@@H](CC(C)C)C(=O)N[C@@H](C(C)C)C(=O)N(C)[C@@H](CC(C)C)C(=O)N[C@@H](C)C(=O)N[C@H](C)C(=O)N(C)[C@@H](CC(C)C)C(=O)N(C)[C@@H](CC(C)C)C(=O)N(C)[C@@H](C(C)C)C(=O)N1C", "result_ITMP": -4.53},
      {"smiles": "CCN(CC)CCOc1ccc2c(c1)C(=O)c1cc(OCCN(CC)CC)ccc1-2", "result_ITMP": 57.2},
      {"smiles": "CCCCCCCCCCCC(N=O)c1cc(C)ccc1O", "note": "(stereo not drawn)", "result_ITMP": 1.92},
      {"smiles": "NCCCCCNCC12CC3CC(CC(C3)C1)C2", "result_ITMP": 16.8},
      {"smiles": "COC(=O)C1=C(C)NC(C)=C([N+](=O)[O-])C1c1ccccc1C(F)(F)F", "note": "(racemic)", "result_ITMP": 2.07},
      {"smiles": "c1cnc2cc3c(cc2n1)C1CNCC3C1", "result_ITMP": -2.31},
      {"smiles": "O=C(/C=C/c1ccc(O)c(O)c1)c1ccc(O)cc1O", "result_ITMP": -4.21},
      {"smiles": "CC[C@H]1OC(=O)C[C@@H](O)[C@H](C)[C@@H](O[C@@H]2O[C@H](C)[C@@H](O[C@H]3C[C@@](C)(O)[C@@H](O)[C@H](C)O3)[C@H](N(C)C)[C@H]2O)[C@@H](CC=O)C[C@@H](C)C(=O)/C=C/C(C)=C/[C@@H]1CO[C@@H]1O[C@H](C)[C@@H](O)[C@@H](OC)[C@H]1OC", "result_ITMP": 15.5},
      {"smiles": "C[C@H](Oc1ccc(S(C)(=O)=O)cc1C(=O)N1CCN(c2ncc(C(F)(F)F)cc2F)CC1)C(F)(F)F", "result_ITMP": 0.3},
      {"smiles": "CCc1ccc2c(-c3cccc(Cl)c3)nc(=O)n(CC)c2n1", "result_ITMP": -12},
      {"smiles": "O=C(CCCCCCC(=O)Nc1ccccc1)NO", "result_ITMP": -5.13},
      {"smiles": "CCNC(=O)CCC/C=C\\C[C@@H]1[C@@H](/C=C/[C@@H](O)CCc2ccccc2)[C@H](O)C[C@@H]1O", "result_ITMP": -4.18},
      {"smiles": "CCCCNc1nc(N)c2[nH]c(=O)n(Cc3ccc(OCCN(C)C)nc3)c2n1", "result_ITMP": 1.08},
      {"smiles": "CCCCOc1ccc(CC/C=C2\\SC(=O)N(CCN)C2=O)cc1", "result_ITMP": 10},
      {"smiles": "Cc1ccc(S(=O)(=O)Nc2ccc3c(c2)c(C(=O)C(F)(F)F)cn3CC(=O)N[C@@H](CC(C)C)C(=O)O)cc1", "result_ITMP": -8.25},
      {"smiles": "Cc1ccc(NC(=O)c2cccc(N(C)C)c2)cc1NC(=O)c1ccc(O)cc1", "result_ITMP": -6.05},
      {"smiles": "O=C1NCCc2[nH]c(-c3ccncc3)cc21", "result_ITMP": 0.77},
      {"smiles": "C[C@]12C[C@H](O)[C@H]3[C@@H](CCC4=CC(=O)CC[C@@]43C)[C@@H]1CC[C@@H]2C(=O)CO", "result_ITMP": -2.04},
      {"smiles": "Cc1ccc2cc(-c3c(C)ccc(C(=O)c4c(-c5ccccc5)n(C)n(-c5ccccc5)c4=O)c3N)ccc2n1", "result_ITMP": -1.64},
      {"smiles": "COc1ccc(S(=O)(=O)Nc2cccnc2Nc2ccc(O)cc2)cc1", "result_ITMP": 20.1}
    ]}
  ]
}
